Sequences with one replicate were seen in a single cluster, so their values are uncertain.
system: ATP; assay: switch fluorescence ratio, 500 uM ATP over buffer (Cy3 cluster intensity, sum of 5 cycles each) (fold (ratio)); higher = stronger signal-on switching upon ATP binding; sequences stand for … in TCGTCGGCAGCGTCAGATGTGTATAAGAGACAGTTTTTTTTTTTTTTTTTTTTTTTTT…TC; settings: aptamer strand: ATP DNA aptamer (quencher-CACCTGGGGGAGTATTGCGGAGGAAGG + anchor), 100 nM annealed; ATP concentration: 500 uM; one replicate
Outline: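 Values give the fluorescence ratio for each switch-domain sequence, averaged from per-cluster ratios of summed target-cycle to summed buffer-cycle Cy3 intensity. The Cy3-labelled switching-strand clusters sat on a modified Illumina MiSeq flow-cell, were annealed to 100 nM quencher-labelled ATP aptamer, and were imaged in selection buffer, then after 15 min with 500 uM ATP at 22 °C. Five cycles ran with NaOH stripping and re-annealing between them, and clusters outside 100-1000 RFU were excluded.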
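Note: ATP exposure 15 min at 22 °C before imaging.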

Sequence	switch fluorescence ratio
ACTGTTTAAA	0.976
ACTTACGACC	1.44
ACTTACTATA	1.14
ACTTACTTTG	1.11
ACTTAGCCGG	1.01
ACTTAGTCTG	1.1
ACTTAGTGTT	1.03
ACTTATGCCG	1.02
ACTTCATCTA	1.11
ACTTCATTCG	1.67
ACTTCCGCTT	2.06
ACTTCCTTAG	1.22
ACTTCTGGTT	1.01
ACTTGACGCA	1.07
ACTTGCGACA	1.08
ACTTGCGGAG	1.08
ACTTGGATCC	1.01
ACTTTAATAG	1.02
ACTTTAGACT	1.19
ACTTTAGGTC	1.01
ACTTTGAAGA	1.01
ACTTTGAGTT	0.993
ACTTTGATAG	1.03
ACTTTGGTAG	0.982
ACTTTTAATC	0.964

Sequence	switch fluorescence ratio
ACTTTTTCAT	1.03
ACTTTTTCCG	1.14
ACTTTTTCCT	1.03
AGAAAACTGT	1.12
AGAAACACCT	1.35
AGAAACGCAG	1.02
AGAAACTGGC	1.03
AGAAAGAAGA	0.999
AGAAAGG	0.977
AGAAAGGCCC	0.954
AGAAATCAGA	0.973
AGAAATCGCG	1
AGAAATGTAC	1.09
AGAAATGTCT	0.98
AGAACAAATA	1.01
AGAACACCTG	1.04
AGAACATGGG	1
AGAACCAAGT	1.03
AGAACCCATC	0.979
AGAACCCTGT	0.984
AGAACCTGTG	1.02
AGAAGATTTT	0.936
AGAAGGGACT	0.978
AGAAGTCAAA	0.996
AGAAGTGAAC	0.981

Sequence	switch fluorescence ratio
AGAAGTTAAG	1.02
AGAATAAAGA	0.983
AGAATAAGCA	1.06
AGAATAAGCG	0.964
AGAATACGGT	1.03
AGAATAGAGG	1.02
AGAATATACA	1.03
AGAATATCTG	1.04
AGAATATTGC	1.02
AGAATCCTAT	1
AGAATCGATG	0.953
AGAATCTTA	0.98
AGAATTCAGT	0.966
AGAATTTCTT	0.995
AGAATTTGCC	1.02
AGACAAAGTT	1.01
AGACAGTGGC	1.09
AGACATGTTC	0.956
AGACCCACAG	1.04
AGACCTAAAA	0.953
AGACGCAAAT	3.01
AGACGCCTGA	0.977
AGACGGAAAT	1.07
AGACGGACTT	1.2
AGACGGATTA	0.988

Sequence	switch fluorescence ratio
AGACGTGCCT	1.06
AGACTATTCA	1.01
AGACTCTTAT	1.02
AGACTGGGGA	0.971
AGACTTGGG	0.995
AGACTTTCAC	1.1
AGAGAAATTT	1.01
AGAGAACCTG	1.12
AGAGAAGAGC	0.964
AGAGAAGTAC	1.21
AGAGACGGTA	1.04
AGAGACGTCA	0.999
AGAGAGCTCG	0.98
AGAGAGTAGT	0.971
AGAGAGTTGC	1.02
AGAGAGTTGT	1
AGAGATAGTT	1.01
AGAGATTTAC	1.01
AGAGCAGGCT	0.891
AGAGCATGCC	1.05
AGAGCCGCTC	1.05
AGAGCGCGAA	1.04
AGAGCGTGTT	0.975
AGAGCTAATA	1.07
AGAGCTAATC	1.06
